The text below walks through data of PMC6919601, “Identification of Plasmodium dipeptidyl aminopeptidase allosteric inhibitors by high throughput screening” (PLoS ONE, 2019).

The campaign covered roughly 110,000 compounds. About 230 (0.21%) showed an effect of 50% or more. This is one part of the list.
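Note: 30 min substrate incubation versus DMSO and 10 µM JCP410 controls.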

DPAP1, sequence (Q8IIJ9 whole entry, looked up): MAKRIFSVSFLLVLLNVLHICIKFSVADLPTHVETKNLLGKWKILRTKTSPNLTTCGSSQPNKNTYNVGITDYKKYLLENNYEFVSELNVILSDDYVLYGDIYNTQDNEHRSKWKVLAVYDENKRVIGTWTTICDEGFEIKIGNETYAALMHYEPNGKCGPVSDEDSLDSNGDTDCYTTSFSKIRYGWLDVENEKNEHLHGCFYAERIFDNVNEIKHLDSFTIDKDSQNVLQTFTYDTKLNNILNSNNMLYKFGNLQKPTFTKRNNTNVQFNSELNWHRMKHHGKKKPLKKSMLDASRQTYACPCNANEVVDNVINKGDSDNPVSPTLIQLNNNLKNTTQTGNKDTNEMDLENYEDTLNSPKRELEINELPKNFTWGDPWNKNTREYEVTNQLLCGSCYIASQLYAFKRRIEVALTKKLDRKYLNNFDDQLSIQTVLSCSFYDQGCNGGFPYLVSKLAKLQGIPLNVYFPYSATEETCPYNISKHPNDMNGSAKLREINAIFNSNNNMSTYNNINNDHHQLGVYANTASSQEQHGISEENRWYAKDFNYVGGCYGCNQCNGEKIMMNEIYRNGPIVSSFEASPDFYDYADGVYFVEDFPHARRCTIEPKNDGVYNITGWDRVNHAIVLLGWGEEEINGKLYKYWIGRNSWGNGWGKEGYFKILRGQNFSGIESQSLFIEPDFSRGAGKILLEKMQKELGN

The test has as its target DPAP1 (Plasmodium falciparum, UniProt Q8IIJ9). Put plainly: primary screen, percent inhibition; read by cleavage of a fluorogenic dipeptide substrate; higher = more effect of the substance. Further details: species or system P. falciparum D10 trophozoite lysates; single well.
For `CCOc1ccc2nc(NC(=O)C3CCCCC3)sc2c1`, the “% Inhibition @ 10 uM” value is recorded as -3.34%.

For `COc1ccc(Cn2c(C(=O)O)c(CNCCc3ccccc3Cl)c3ccccc32)cc1`, the “% Inhibition @ 10 uM” value was 1.17%.

Turning to `COCCCN1Cc2cccc(C(N)=O)c2C1=O`, the “% Inhibition @ 10 uM” value was 0.708%.

For the molecule `Cc1ccc(Cn2c3ccccc3c3cnn(CC(=O)NCc4ccccc4)c(=O)c32)cc1`, the “% Inhibition @ 10 uM” value is reported as -3.34%.

In the case of `Cc1cccc(C)c1OCc1nc2c3cnn(-c4nc5ccccc5s4)c3ncn2n1`, the “% Inhibition @ 10 uM” value is -4.64%.

`CC(=O)c1cccc(NC(=O)COc2ccc(Cl)cc2C)c1`: the “% Inhibition @ 10 uM” value is reported as 4.22%.

With `COc1cc(C2Oc3c(OC)cccc3C3CC(c4cc(Cl)ccc4O)=NN32)ccc1O` (centres unmarked), the “% Inhibition @ 10 uM” value is on record as 1.76%.

Take `Cc1ccc2nc(-c3ccc(N)cc3)sc2c1S(=O)(=O)O`: the “% Inhibition @ 10 uM” value was 0.847%.

Take `O=C(NC1CC1)c1ccc(CSCc2ccccc2Cl)o1`: the “% Inhibition @ 10 uM” value is given as -4.97%.

With `CCOC(=O)c1cnc(-c2ccccc2)nc1N`, the “% Inhibition @ 10 uM” value is listed as -3.94%.

Consider `Cc1ccc(NC(=O)CN(c2cc(Cl)ccc2C)S(C)(=O)=O)c(C)c1`, for which the “% Inhibition @ 10 uM” value is -1.61%.

As for `Cc1c(Cl)cccc1NC(=O)C(c1ccccc1)c1ccccc1`, the “% Inhibition @ 10 uM” value is reported as 7.65%.

Take `COc1ccc(-n2nc(C)c3c2OC(N)=C(C#N)C3c2ccc(C)cc2)cc1` (centres unmarked): the “% Inhibition @ 10 uM” value was 2.45%.

Consider `CCOc1ccccc1CNC(=O)Cn1nc(C)n2c(cc3cc(F)ccc32)c1=O`, for which the “% Inhibition @ 10 uM” value is -1.7%.

As to `Cc1ccn2c(NC(=O)c3ccc4c(c3)OCO4)c(-c3ccccc3)nc2c1`, the “% Inhibition @ 10 uM” value is given as -3.48%.

Take `COc1ccc(CCN2C(=O)c3ccccc3C2(O)Cc2ccccc2)cc1OC` (centres unmarked): the “% Inhibition @ 10 uM” value is recorded as -2.87%.

Take `Cc1ccc(C2C(C#N)=C(N)N(c3cccnc3)C3=C2C(=O)CC(c2ccccc2)C3)cc1` (centres unmarked): the “% Inhibition @ 10 uM” value was found to be 6.19%.

`CCc1ccc(S(=O)(=O)c2nnn(-c3ccccc3C(F)(F)F)c2N)cc1`: the “% Inhibition @ 10 uM” value was determined as 0.351%.

In the case of `OC1CCN(c2ccc3ccccc3n2)CC1`, the “% Inhibition @ 10 uM” value was -6.22%.

Turning to `COc1ccc(C(=O)Nc2ccc(NC(=O)c3ccco3)c(Cl)c2)cc1Br`, the “% Inhibition @ 10 uM” value turned out to be 10%.

With `CCCOC(=O)C1=C(C)NC(=O)NC1c1cccc(Cl)c1Cl` (centres unmarked), the “% Inhibition @ 10 uM” value is reported as -3.14%.

Turning to `CN1CCN(C(=O)c2ccc(F)cc2)CC1`, the “% Inhibition @ 10 uM” value is on record as -0.268%.

Turning to `Clc1ccc(Cl)c(SCCc2ccccn2)c1`, the “% Inhibition @ 10 uM” value is listed as 2.57%.

As for `CC(=O)c1c(C)[nH]c(C(=O)NCCc2cccc(C)c2)c1C`, the “% Inhibition @ 10 uM” value is given as -6.06%.

With `CC1=Nc2ncnn2C(c2ccc(OC(F)F)cc2)/C1=C(\O)OC1CCCCC1` (centres unmarked), the “% Inhibition @ 10 uM” value came to 4.23%.

As for `CCN(CCO)Cc1csc2ccc(Cl)cc12`, the “% Inhibition @ 10 uM” value was -0.854%.

For `CC(NC(=O)c1ccc(Br)o1)c1ccccc1` (centres unmarked), the “% Inhibition @ 10 uM” value is reported as -3.82%.

As to `C=CCOc1ccc(/C=C2/NC(=O)NC2=O)cc1`, the “% Inhibition @ 10 uM” value is 3.15%.

With `CC1(C)CC(=O)C(C(O)c2ccccc2)C(C)(C)N1` (centres unmarked), the “% Inhibition @ 10 uM” value was -4.01%.

In the case of `O=C(Cn1ncc2c1-c1ccccc1OC2)NCCCN1CCC(Cc2ccccc2)CC1`, the “% Inhibition @ 10 uM” value came out at 4.41%.

In the case of `COc1ccc(-c2noc(N3CCC(C(=O)NCc4ccc5c(c4)OCO5)CC3)n2)cc1`, the “% Inhibition @ 10 uM” value was -3.42%.

For `COc1ccc(C2CC(=O)C(/C=N/CCN3CCNCC3)=C(O)C2)cc1` (centres unmarked), the “% Inhibition @ 10 uM” value turned out to be 0.673%.

`Cc1ccc(S(=O)(=O)NC(C)C(=O)NCc2ccccc2Cl)cc1` (centres unmarked): the “% Inhibition @ 10 uM” value was -5.21%.

In the case of `CCCCN(C)C(=O)C(C)n1nc(CC)n2c(cc3occc32)c1=O` (centres unmarked), the “% Inhibition @ 10 uM” value was 1.38%.

As to `CSC1=C(C#N)C(c2ccc(Cl)cc2)C2=C(O)CC(C)(C)CC2=N1` (centres unmarked), the “% Inhibition @ 10 uM” value is listed as 5.42%.

For the molecule `O=C(COc1cc(Cl)ccc1Cl)NCc1ccco1`, the “% Inhibition @ 10 uM” value was -6.06%.

For `CC(C)Oc1c(-c2ccc(F)cc2)c(=O)c1=O`, the “% Inhibition @ 10 uM” value is -1.22%.

`COc1cc(N2C(=O)c3ccccc3C2=O)nc(OC)n1`: the “% Inhibition @ 10 uM” value worked out at 3.61%.

With `Cc1c2cnn(CC(=O)N3CCC4(CC3)OCCO4)c(=O)c2c(C)n1Cc1ccccc1`, the “% Inhibition @ 10 uM” value is given as -2.17%.

Regarding `Cc1ccc(C)c(OCC(=O)Nc2ccc(S(=O)(=O)Nc3cc(C)on3)cc2)c1`, the “% Inhibition @ 10 uM” value is given as 40.8%.

In the case of `C=C1CC(C)OC(c2ccccc2O)C1` (centres unmarked), the “% Inhibition @ 10 uM” value is -8.14%.

Turning to `O=C(Nc1ccc(Cl)cc1C(=O)N1CCN(CCO)CC1)c1ccco1`, the “% Inhibition @ 10 uM” value was 3.81%.

Take `COc1ccccc1CNCc1c(C(=O)O)c(C)n(Cc2c(F)cccc2Cl)c1C`: the “% Inhibition @ 10 uM” value is reported as -3.67%.

As to `CC1CCCC(C)N1CCNC(=O)C1CCN(S(=O)(=O)N2CCC3(CC2)OCCO3)CC1` (centres unmarked), the “% Inhibition @ 10 uM” value is given as 2.18%.

`CC(C)CCN1CC(C(=O)NCc2cccnc2)CC1=O` (centres unmarked): the “% Inhibition @ 10 uM” value is given as -3.58%.

As for `CCCN1CCC(NCc2cccc(F)c2)CC1`, the “% Inhibition @ 10 uM” value is given as -3.8%.

For the molecule `CC1CCCCC1NC(=O)C1CCCN(S(=O)(=O)c2c[nH]cn2)C1` (centres unmarked), the “% Inhibition @ 10 uM” value is recorded as 2.93%.

As to `Cc1cc(C)n2cc(COc3ccc(Cl)cc3C)nc2n1`, the “% Inhibition @ 10 uM” value is listed as -7.45%.

In the case of `COCCCNC(=O)CSc1nc(NCCc2ccccc2)c2ccccc2n1`, the “% Inhibition @ 10 uM” value was determined as 1.24%.

For `CCOc1ccc2nc(NC(=O)c3ccc([N+](=O)[O-])c(C)c3)sc2c1`, the “% Inhibition @ 10 uM” value is recorded as 4.6%.
